Source: PubChem BioAssay AID1347165 (National Center for Advancing Translational Sciences (NCATS), 2019)
Screen size: about 220,000 compounds; about 5,700 (2.6%) were called active. Inconclusive results, whose numbers are uncertain, are shown with a selection of clear calls. The call rests on the fitted dose curve; in most records, active means well fitted inhibition curve with a large enough effect; inconclusive means small, poorly fitted or top-dose-only effect; inactive means no such curve, though single readings can be large or run the other way. A potency beside an inconclusive call is a rough fit, not a confirmed value.

The compounds below were run against Lysine-specific demethylase 5B (Homo sapiens) (UniProt Q9UGL1) (assay: Primary screen for KDM5B Histone Demethylases FDH-coupled qHTS). Settings: FDH-coupled NADH fluorescence (FDH is formaldehyde dehydrogenase); activity change, negative = inhibition: at 57.7 µM (top of the series) unless noted.
UniProt Q9UGL1, sequence (Q9UGL1 whole entry, looked up): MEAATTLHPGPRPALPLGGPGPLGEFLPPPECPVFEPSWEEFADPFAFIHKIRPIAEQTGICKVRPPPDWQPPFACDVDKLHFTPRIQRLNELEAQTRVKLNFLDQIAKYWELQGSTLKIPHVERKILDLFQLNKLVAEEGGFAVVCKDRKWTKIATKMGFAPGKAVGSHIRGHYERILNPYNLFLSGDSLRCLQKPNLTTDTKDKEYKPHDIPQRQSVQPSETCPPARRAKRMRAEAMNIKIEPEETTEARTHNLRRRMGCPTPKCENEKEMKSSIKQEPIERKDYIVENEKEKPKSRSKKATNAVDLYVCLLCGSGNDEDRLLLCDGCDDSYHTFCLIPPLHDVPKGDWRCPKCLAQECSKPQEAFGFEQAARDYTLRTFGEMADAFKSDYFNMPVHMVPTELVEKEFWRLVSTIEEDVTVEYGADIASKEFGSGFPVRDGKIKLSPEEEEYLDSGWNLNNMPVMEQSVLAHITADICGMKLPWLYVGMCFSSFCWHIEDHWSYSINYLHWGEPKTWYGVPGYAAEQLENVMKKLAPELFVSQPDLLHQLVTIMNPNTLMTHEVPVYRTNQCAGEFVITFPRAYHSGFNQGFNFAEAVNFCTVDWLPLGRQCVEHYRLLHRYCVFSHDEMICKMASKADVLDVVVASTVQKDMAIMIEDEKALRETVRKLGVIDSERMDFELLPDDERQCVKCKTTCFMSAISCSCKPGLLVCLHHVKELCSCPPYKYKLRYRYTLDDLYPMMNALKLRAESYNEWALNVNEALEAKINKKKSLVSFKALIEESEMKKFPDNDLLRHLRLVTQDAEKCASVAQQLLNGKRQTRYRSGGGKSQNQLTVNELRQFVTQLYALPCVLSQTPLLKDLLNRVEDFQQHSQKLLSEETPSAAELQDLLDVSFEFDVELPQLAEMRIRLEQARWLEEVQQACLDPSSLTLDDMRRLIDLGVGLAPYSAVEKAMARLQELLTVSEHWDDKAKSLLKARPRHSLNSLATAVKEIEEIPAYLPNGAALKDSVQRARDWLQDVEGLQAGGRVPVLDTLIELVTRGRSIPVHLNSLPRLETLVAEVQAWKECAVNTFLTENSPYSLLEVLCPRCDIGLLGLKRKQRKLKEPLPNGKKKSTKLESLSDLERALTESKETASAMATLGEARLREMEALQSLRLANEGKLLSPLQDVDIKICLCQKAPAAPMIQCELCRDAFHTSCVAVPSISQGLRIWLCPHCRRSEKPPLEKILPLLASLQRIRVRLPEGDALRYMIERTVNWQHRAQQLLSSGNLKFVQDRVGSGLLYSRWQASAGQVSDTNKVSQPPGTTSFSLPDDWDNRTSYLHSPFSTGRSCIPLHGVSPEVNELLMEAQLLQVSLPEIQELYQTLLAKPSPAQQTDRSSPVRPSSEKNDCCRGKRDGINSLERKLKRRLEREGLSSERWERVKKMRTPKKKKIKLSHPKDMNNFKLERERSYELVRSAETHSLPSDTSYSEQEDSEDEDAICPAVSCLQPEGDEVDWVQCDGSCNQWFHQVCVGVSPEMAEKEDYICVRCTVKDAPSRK
Procedure, shortened: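 Compound dilutions met 200 nM (final) KDM5BΔAP for 10 min at room temperature before substrate addition. The substrate mix held 12.5 µM H3K4me3 with cofactors 25 µM α-ketoglutarate and 50 µM Fe²⁺. NADH signal gain over 30 min defined activity.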
Further: nearly all actives have a fitted effect of over 70% in size.
Potency means the concentration at half of the fitted maximal effect; tags describe the fitted curve by direction and shape.
Wherever activity change, negative = inhibition is given: 0% is about no effect.

| SMILES | activity change, negative = inhibition | Potency |
| --- | --- | --- |
| COc1cc(F)ccc1-c1cn(C)c(=O)n2cc(CN3CCNC(=O)C3)nc12 | inactive: 6.89% [at 86.2 µM] |  |
| O=C(OCC(=O)N1CCc2ccccc2C1)c1cc(=O)[nH]c2ccccc12 |  | inconclusive: 22.4 µM [inhibitor, single point] |
| COc1ccc(NC(=O)c2ccc3c(c2)C(O)CCCCCN3C)cn1 (configuration not stated) |  | inconclusive: 17.8 µM [inhibitor, partial curve, poor fit] |
| Cc1cc(F)ccc1Nc1ncncc1-c1nc(-c2ccccc2)no1 |  | active: 7.94 µM |
| O=C(c1ccccc1)n1nc(NCc2cccs2)nc1NCc1cccs1 |  | inconclusive: 35.5 µM [inhibitor, partial curve, poor fit] |
| CCOc1ccc(CC(=O)N2CCCN(c3cc(-c4ccccc4)[nH]n3)CC2)cc1OCC |  | inconclusive: 22.4 µM [inhibitor, partial curve, poor fit] |
| O=C(CCc1ccccc1)N1CCC(Oc2ncccc2C(=O)N2CCCCC2)C1 (configuration not stated) | inactive: -20.2% |  |
| CCOc1ccc(-c2cc(NC(=O)c3ccccc3)c(C(=O)OC)s2)cc1 | inconclusive: -33.4% [inhibitor] |  |
| COC(=O)[C@@H]1Cc2c([nH]c3ccccc23)[C@H]2C[C@H](NCc3cccs3)C[C@@H](c3ccccc3)N21 |  | inconclusive: 39.8 µM [inhibitor, single point] |
| COc1nccc(N2CCC(CC(=O)N3CCN(CCC#N)CC3)CC2)n1 | inactive: -13.1% |  |
| Cc1noc2c(-c3cccc(O)c3)cc(-c3cccs3)nc12 |  | active: 12.6 µM |
| Cc1cccc(NC(=O)c2cc3c(s2)-c2ccccc2S(=O)(=O)C3)n1 |  | inconclusive: 25.1 µM [inhibitor, partial curve, poor fit] |
| COc1ccccc1CCNC(=O)c1cccn1-c1nnc(N2CCCC2)s1 |  | inconclusive: 31.6 µM [inhibitor, single point] |
| Cc1noc(C)c1-c1cc(-c2ccccc2)cn2cncc12 |  | inconclusive: 31.6 µM [inhibitor, partial curve, poor fit] |
| COc1cccc(C(=O)Nc2ccc3nc(SCC(=O)N(C)c4ccccc4)sc3c2)c1 |  | inconclusive: 28.2 µM [inhibitor, partial curve, poor fit] |
| CC(=O)N1CCCC(c2nn(-c3ccc(F)cc3)c(=O)[nH]2)C1 (configuration not stated) | inactive: -9.7% [at 86.2 µM] |  |
| Cc1ccc(CNC(=O)c2ccc(CSc3nc4ccncc4n3Cc3ccc(C)cc3)cc2)cc1 |  | inconclusive: 35.5 µM [inhibitor, partial curve, poor fit] |
| COc1ccc(CCNC(=O)CCc2cn(Cc3ccccc3Cl)c3ccccc23)c(OC)c1 |  | inconclusive: 28.2 µM [inhibitor, single point] |
| Cc1nc(-c2cccc(Cl)c2)n(Cc2cc(=O)n3ccccc3n2)c(=O)c1CCO |  | active: 31.6 µM |
| O=C(NCCc1ccc(Cl)cc1)C1CCN(Cc2cc3ccccc3n2Cc2ccccc2)CC1 |  | inconclusive: 14.1 µM [inhibitor, partial curve, poor fit] |
| Cc1ccc(Cc2nc3ccccc3nc2SCC(=O)N2CCC(C)CC2)cc1 |  | inconclusive: 31.6 µM [inhibitor, single point] |
| Cc1ccc(-n2nc(C)c3c(C)c(CCC(=O)NC(C)c4ccccc4)c(C)nc32)cc1 (configuration not stated) |  | inconclusive: 1.58 µM [inhibitor, full curve, poor fit] |
| Fc1ccc(CN2CCc3nc(N4CCN(c5ccccc5F)CC4)ncc3C2)c(F)c1 |  | inconclusive: 12.6 µM [inhibitor, partial curve, poor fit] |

| SMILES | activity change, negative = inhibition | Potency |
| --- | --- | --- |
| CN1CC(=O)N(C2CCCCC2)Cc2c(NC3CC3)ncnc21 |  | inconclusive: 56.2 µM [inhibitor, partial curve] |
| O=C(N[C@H]1CCN2C(=O)N(c3cccc4nsnc34)C(=O)[C@@H]2C1)c1ccnc(Cl)c1 |  | active: 28.2 µM |
| CC(C)Oc1ccc(-c2cc(C(=O)NCc3ccncc3)c3ccccc3n2)cc1 |  | inconclusive: 28.2 µM [inhibitor, partial curve, poor fit] |
| O=C(CC1(C(=O)O)CCCCCC1)Nc1cccc(CO)c1 | inactive: 8.01% |  |
| COc1ccc(N2CCN(C(CNS(=O)(=O)c3ccc(OC)c(C)c3)c3ccco3)CC2)cc1 (configuration not stated) |  | inconclusive: 25.1 µM [inhibitor, single point] |
| Cc1cccn2c(=O)c3cc(C(=O)NCC(C)C)sc3nc12 |  | inconclusive: 14.1 µM [inhibitor, partial curve, poor fit] |
| O=C(c1ccccc1F)N1CCCN(c2nc3ncccc3o2)CC1 |  | inconclusive: 39.8 µM [inhibitor, single point] |
| Cc1ccc(C(=O)/C=C/c2cccc(/C=C/C(=O)c3ccc(C)o3)c2)o1 | inactive: -22.1% |  |
| O=C(CSc1nc2c([nH]c3ccccc32)c(=O)n1-c1ccccc1)Nc1ccc2c(c1)OCO2 |  | inconclusive: 39.8 µM [inhibitor, single point] |
| Nc1c(C(=O)Nc2ccccc2Br)sc2nc(-c3cccs3)ccc12 |  | inconclusive: 4.47 µM [inhibitor, full curve, poor fit] |
| CNC(=O)N1CCC(C2CCN(Cc3ccccc3C#N)C2)CC1 (configuration not stated) | inactive: -17.5% |  |
| O=C(c1cc2cc(Br)ccc2o1)c1ccccc1F | inactive: 18.3% |  |
| CCc1ccccc1Nc1ncnc2c1cnn2-c1ccccc1 |  | inconclusive: 39.8 µM [inhibitor, single point] |
| COC(=O)c1ccc2c(=O)n(CCCCCC(=O)NCCc3ccccc3)c(=O)[nH]c2c1 |  | inconclusive: 28.2 µM [inhibitor, single point] |
| Cc1ccc(C2=NN(C(=O)Cn3cnc4sccc4c3=O)C(c3ccco3)C2)cc1 (configuration not stated) |  | inconclusive: 31.6 µM [inhibitor, partial curve, poor fit] |
| Cc1cc(NC(=O)N2CCC(CN3CCCCCC3)CC2)ccc1Br |  | inconclusive: 22.4 µM [inhibitor, single point] |
| O=C(O)CC1(CC(=O)N[C@@H]2C=C(C(=O)N[C@H]3CCCNC3=O)C[C@@H](O)[C@@H]2O)CCCC1 |  | inconclusive: 17.8 µM [inhibitor, partial curve, poor fit] |
| COc1cccc(NC(=O)c2c(C)nn(-c3cccc(C)c3)c2-n2cccc2)c1 |  | inconclusive: 35.5 µM [inhibitor, partial curve, poor fit] |
| Cc1cc(C)c(CNC(=O)c2cc(-c3ccccc3F)cc3c2OCCN3C)c(=O)[nH]1 |  | active: 31.6 µM |
| Nc1ccc2oc(-c3ccccc3)cc2c1 |  | inconclusive: 10 µM [inhibitor, partial curve, poor fit] |
| CCOC(=O)c1cnc2c(ccc3ccccc32)c1Nc1ccc(N(C)C)cc1 |  | inconclusive: 28.2 µM [inhibitor, partial curve, poor fit] |
| COc1nccnc1NC1CCN(C(=O)Cc2cccs2)CC1 |  | active: 31.6 µM |
| Clc1cc(SCc2ccccc2)ccn1 | inactive: -4.63% |  |

| SMILES | activity change, negative = inhibition | Potency |
| --- | --- | --- |
| CCNC(=O)c1cccnc1OC1CCN(Cc2ccccn2)C1 (configuration not stated) |  | active: 20 µM |
| COC(=O)c1cc(C(=O)OC)cc(-c2ccc(C=O)o2)c1 | inactive: -0.49% |  |
| COc1ccc(CCNC(=O)CSc2nc(-c3ccc(OC)c(OC)c3)ccc2C#N)cc1 |  | inconclusive: 1.78 µM [inhibitor, full curve, poor fit] |
| O=C(Nc1ccc2[nH]ccc2c1)c1cnc2c(c1)N([S+](=O)([O-])c1cccnc1)CCC2 |  | inconclusive: 31.6 µM [inhibitor, partial curve, poor fit] |
| Cc1ccc2nc(-c3ccc(C)s3)cc(C(=O)NCc3ccccn3)c2c1 |  | inconclusive: 25.1 µM [inhibitor, partial curve, poor fit] |
| Cc1nn(C)c(C)c1CNCc1ccc(N2CCOCC2)nc1 |  | inconclusive: 31.6 µM [inhibitor, single point] |
| CN1CCC(N(C)CCN(C)C(=O)Nc2ccc(C(F)(F)F)cc2)CC1 | inactive: -2.74% |  |
| c1cc(-c2nnc([C@H]3CCN(C4CCCCC4)C3)o2)ccn1 |  | inconclusive: 35.5 µM [inhibitor, single point] |
| Cc1c(C)n2c3c(=O)[nH]c(=O)n(C)c3nc2n1CCCN1CCN(C)CC1 | inactive: -3.69% |  |
| COc1cc(OC)cc(C(=O)N2CCCN(c3cc(-c4ccc(C)c(C)c4)[nH]n3)CC2)c1 |  | inconclusive: 22.4 µM [inhibitor, partial curve] |
| O=C(Nc1cccc(F)c1)N1Cc2[nH]cnc2C[C@H]1c1nc(-c2ccccc2)no1 |  | active: 28.2 µM |
| CC(C)CCNc1nc(C(=O)OCC(=O)NC(=O)NCC(C)C)cs1 | inactive: -18.1% |  |
| O=C([C@H]1C[C@H](Oc2ccccc2)CN1C(=O)NCc1ccc(F)cc1)N1CCOCC1 | inactive: 2.54% |  |
| COc1ccc(OC)c(CN2CCNc3cnc(Nc4ccccc4)cc3C2)c1 |  | active: 35.5 µM |
| O=C(c1cnc(C2CC2)nc1)N1C[C@@H](CN2CCCCCC2)[C@@H](CO)C1 |  | inconclusive: 17.8 µM [inhibitor, partial curve] |
| Cc1cc(NC(=O)C2CC2)sc1C(=O)NC(C)c1ccccc1Br (configuration not stated) | inactive: 4.36% |  |
| COc1ccc(-c2cc(-c3cnn(C)c3)cn3cncc23)cn1 |  | inconclusive: 39.8 µM [inhibitor, partial curve, poor fit] |
| CC(C)c1nc(CCNC(=O)c2ccc(C3CCNC3)cc2)cs1 (configuration not stated) |  | inconclusive: 10 µM [inhibitor, partial curve, poor fit] |
| Cc1ccc(-c2nc(N3CCOCC3)cc3c2CN(Cc2cnn(C)c2)C3=O)cn1 |  | active: 35.5 µM |
| CCC1CCCCN1C(=O)CN1C(=O)N(c2cc(Cl)ccc2C)S(=O)(=O)c2ccccc21 (configuration not stated) | inactive: -9.52% |  |
| COCCCn1c(=O)c2sccc2n2c(CCCC(=O)NCc3cccc(OC)c3)nnc12 |  | inconclusive: 39.8 µM [inhibitor, single point] |
